# The list shows a part of the results. No stated cut-off is given here; in the data, active = 3.2 or more and inactive = the rest. The signal is at background level for most entries.
# B1: CABP5_Y62_T65R (peptide)
# chain: MRTMGYMPREM
# B2: C7orf57_Y70 (peptide)
# chain: ETDSEYVKLAK
# B3: CALM1_Y139 (peptide)
# chain: DGQVNYEEFVQ
# B4: BTK_Y511_C506R (peptide)
# chain: REAMEYLESKQ
# B5: CALCOCO2_Y358_P357L (peptide)
# chain: FNSLLYQVPTS
# B6: BTK_Y511 (peptide)
# chain: CEAMEYLESKQ
# B7: CAGE1_Y438_V435L (peptide)
# chain: KSLSQYLEMDK
# B8: CALM1_Y100_N98S (peptide)
# chain: KDGSGYISAAE
# B9: CACNA1H_Y519 (peptide)
# chain: VHHLVYHHHHH
# B10: CAGE1_Y438 (peptide)
# chain: KSVSQYLEMDK
# B11: BTK_Y461_G462V (peptide)
# chain: KLVQLYVVCTK
# B12: CACNA1C_Y1757_YF (peptide)
# chain: GNHVSYFQSDG
# B13: BTK_Y511_A508D (peptide)
# chain: CEDMEYLESKQ
# B14: CACNA1C_Y1832_T1835M (peptide)
# chain: PRPAGYPSMVS
# B15: C9orf24_Y126_R129W (peptide)
# chain: NKYTTYLPWLP
# B16: CAMK2A_Y106 (peptide)
# chain: IVAREYYSEAD
# B17: CACNA1C_Y1832_G1831C (peptide)
# chain: PRPACYPSTVS
# B18: BTK_Y617 (peptide)
# chain: QGLRLYRPHLA
# B19: CAD_Y735 (peptide)
# chain: EPSVDYCVVKI
# B20: C1orf162_Y120 (peptide)
# chain: GESLTYASTTF
# B21: CAMK2A_Y106_E109D (peptide)
# chain: IVAREYYSDAD
# B22: CACNA1A_Y794 (peptide)
# chain: SREALYNEMDP
# B23: BTK_Y461_G462D (peptide)
# chain: KLVQLYDVCTK
# B24: C7orf57_Y70_A74S (peptide)
# chain: ETDSEYVKLSK
# B25: BTK_Y617_A622P (peptide)
# chain: QGLRLYRPHLP
# B26: CACNA1C_Y1757_V1755I_YF (peptide)
# chain: GNHISYFQSDG
# B27: C9orf24_Y126_YF (peptide)
# chain: NKFTTYLPRLP
# B28: C5orf64_Y60 (peptide)
# chain: LTAEVYFPSIK
# B29: BTK_Y425 (peptide)
# chain: KWRGQYDVAIK
# B30: CALM3_Y100_A103V (peptide)
# chain: KDGNGYISVAE
# B31: BUB1_Y538 (peptide)
# chain: GNKENYGLPQP
# B32: C1orf162_Y120_A121V (peptide)
# chain: GESLTYVSTTF
# B33: CALM2_Y100_N98I (peptide)
# chain: KDGIGYISAAE
# B34: BTK_Y617_G613D (peptide)
# chain: QDLRLYRPHLA
# B35: C4BPA_Y470 (peptide)
# chain: KLSCSYSHWSA
# B36: BTK_Y617_P619A (peptide)
# chain: QGLRLYRAHLA
# B37: C1QTNF1_Y145_S143N (peptide)
# chain: RCKNHYAAFSV
# Target: SHP2 C-SH2 domain E139D
# Experiment: enrichment score (SH2-bound / input frequency) (ratio); bacterial display of known human phosphotyrosine sites (pTyr-Var adds point mutants) read by sequencing; higher = stronger binding; tyrosines were phosphorylated by kinases first
# Conditions: peptide library: pTyr-Var
# 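Further: displayed peptides selected on beads carrying the immobilized SH2 domain, with library peptides lacking any tyrosine serving as negative controls.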
row,Binder,enrichment score
1,B1,inactive: 0.895
2,B2,inactive: 0.406
3,B3,inactive: 0.617
4,B4,inactive: 0.621
5,B5,inactive: 1.4
6,B6,inactive: 1.12
7,B7,inactive: 1.03
8,B8,inactive: 0.554
9,B9,inactive: 3.19
10,B10,inactive: 0.83
11,B11,inactive: 1.25
12,B12,inactive: 0.858
13,B13,inactive: 0.774
14,B14,inactive: 0.833
15,B15,inactive: 1.11
16,B16,inactive: 0.726
17,B17,inactive: 0.794
18,B18,inactive: 1.24
19,B19,inactive: 0.61

row,Binder,enrichment score
1,B20,inactive: 0.548
2,B21,inactive: 0.823
3,B22,inactive: 0.998
4,B23,inactive: 1.02
5,B24,inactive: 0.532
6,B25,inactive: 1.14
7,B26,inactive: 1.03
8,B27,inactive: 1.12
9,B28,inactive: 1.35
10,B29,inactive: 1.47
11,B30,inactive: 0.484
12,B31,inactive: 0.636
13,B32,inactive: 0.639
14,B33,inactive: 0.733
15,B34,inactive: 1.36
16,B35,inactive: 1.21
17,B36,inactive: 2.4
18,B37,inactive: 2.96

# Target: SHP2 C-SH2 domain wild-type
# Experiment: as above
# Conditions: peptide library: pTyr-Var
row,Binder,enrichment score
1,B1,inactive: 0.856
2,B2,inactive: 0.534
3,B3,inactive: 0.721
4,B4,inactive: 0.534
5,B5,inactive: 1.17
6,B6,inactive: 1.23
7,B7,inactive: 0.644
8,B8,inactive: 0.448
9,B9,active: 3.46
10,B10,inactive: 0.956
11,B11,inactive: 1.15
12,B12,inactive: 0.723
13,B13,inactive: 1.01
14,B14,inactive: 0.775
15,B15,inactive: 1.57
16,B16,inactive: 0.713
17,B17,inactive: 0.766
18,B18,inactive: 1.22
19,B19,inactive: 0.5

row,Binder,enrichment score
1,B20,inactive: 0.448
2,B21,inactive: 0.884
3,B22,inactive: 0.829
4,B23,inactive: 0.979
5,B24,inactive: 0.453
6,B25,inactive: 0.716
7,B26,inactive: 0.67
8,B27,inactive: 1.21
9,B28,inactive: 1.64
10,B29,inactive: 1.28
11,B30,inactive: 0.509
12,B31,inactive: 0.639
13,B32,inactive: 0.56
14,B33,inactive: 0.488
15,B34,inactive: 0.911
16,B35,inactive: 1.25
17,B36,inactive: 1.93
18,B37,inactive: 2.63

# Target: SHP2 N-SH2 domain L43F
# Experiment: as above
# Conditions: peptide library: pTyr-Var
row,Binder,enrichment score
1,B1,inactive: 0.809
2,B2,inactive: 0.521
3,B3,inactive: 0.777
4,B4,inactive: 0.699
5,B5,inactive: 1.19
6,B6,inactive: 1.04
7,B7,inactive: 0.931
8,B8,inactive: 0.559
9,B9,active: 3.23
10,B10,inactive: 0.972
11,B11,inactive: 1.01
12,B12,inactive: 0.838
13,B13,inactive: 0.954
14,B14,inactive: 0.984
15,B15,inactive: 1.29
16,B16,inactive: 0.72
17,B17,inactive: 0.664
18,B18,inactive: 1.13
19,B19,inactive: 0.426

row,Binder,enrichment score
1,B20,inactive: 0.968
2,B21,inactive: 0.806
3,B22,inactive: 1.07
4,B23,inactive: 0.959
5,B24,inactive: 0.373
6,B25,inactive: 1.37
7,B26,inactive: 0.885
8,B27,inactive: 1.05
9,B28,inactive: 1.17
10,B29,inactive: 1.29
11,B30,inactive: 0.477
12,B31,inactive: 0.541
13,B32,inactive: 1.1
14,B33,inactive: 0.543
15,B34,inactive: 0.918
16,B35,inactive: 1.03
17,B36,inactive: 2.44
18,B37,active: 3.49

# Target: SHP2 N-SH2 domain T42A
# Experiment: as above
# Conditions: peptide library: pTyr-Var
row,Binder,enrichment score
1,B1,inactive: 0.777
2,B2,inactive: 0.432
3,B3,inactive: 0.69
4,B4,inactive: 0.767
5,B5,inactive: 1.54
6,B6,inactive: 0.735
7,B7,inactive: 1.76
8,B8,inactive: 0.533
9,B9,inactive: 2.97
10,B10,inactive: 1.99
11,B11,inactive: 0.929
12,B12,inactive: 0.643
13,B13,inactive: 0.564
14,B14,inactive: 0.78
15,B15,inactive: 1.2
16,B16,inactive: 0.639
17,B17,inactive: 0.637
18,B18,inactive: 0.969
19,B19,inactive: 0.47

row,Binder,enrichment score
1,B20,inactive: 0.866
2,B21,inactive: 0.855
3,B22,inactive: 0.821
4,B23,inactive: 0.982
5,B24,inactive: 0.519
6,B25,inactive: 0.617
7,B26,inactive: 0.791
8,B27,inactive: 0.896
9,B28,inactive: 1.29
10,B29,inactive: 1.24
11,B30,inactive: 0.612
12,B31,inactive: 0.548
13,B32,inactive: 1
14,B33,inactive: 0.596
15,B34,inactive: 0.733
16,B35,inactive: 1.18
17,B36,inactive: 2.5
18,B37,inactive: 2.54

# Target: SHP2 N-SH2 domain T52S
# Experiment: as above
# Conditions: peptide library: pTyr-Var
row,Binder,enrichment score
1,B1,inactive: 0.867
2,B2,inactive: 0.401
3,B3,inactive: 0.727
4,B4,inactive: 0.664
5,B5,inactive: 1.32
6,B6,inactive: 0.826
7,B7,inactive: 0.893
8,B8,inactive: 0.647
9,B9,inactive: 2.96
10,B10,inactive: 0.821
11,B11,inactive: 0.928
12,B12,inactive: 0.697
13,B13,inactive: 0.632
14,B14,inactive: 1.09
15,B15,inactive: 1.35
16,B16,inactive: 0.773
17,B17,inactive: 0.671
18,B18,inactive: 1.23
19,B19,inactive: 0.73

row,Binder,enrichment score
1,B20,inactive: 0.794
2,B21,inactive: 0.771
3,B22,inactive: 0.984
4,B23,inactive: 1.08
5,B24,inactive: 0.408
6,B25,inactive: 0.684
7,B26,inactive: 0.904
8,B27,inactive: 1.18
9,B28,inactive: 1.34
10,B29,inactive: 1.3
11,B30,inactive: 0.508
12,B31,inactive: 0.538
13,B32,inactive: 1.04
14,B33,inactive: 0.513
15,B34,inactive: 0.817
16,B35,inactive: 0.95
17,B36,inactive: 2.77
18,B37,active: 3.46

# Target: SHP2 N-SH2 domain wild-type
# Experiment: as above
# Conditions: peptide library: pTyr-Var
row,Binder,enrichment score
1,B1,inactive: 0.897
2,B2,inactive: 0.45
3,B3,inactive: 0.808
4,B4,inactive: 1.2
5,B5,inactive: 1.37
6,B6,inactive: 1.63
7,B7,inactive: 1.16
8,B8,inactive: 0.752
9,B9,active: 3.55
10,B10,inactive: 0.818
11,B11,inactive: 1.16
12,B12,inactive: 0.685
13,B13,inactive: 0.879
14,B14,inactive: 0.939
15,B15,inactive: 1.03
16,B16,inactive: 0.752
17,B17,inactive: 0.788
18,B18,inactive: 1.36
19,B19,inactive: 0.637

row,Binder,enrichment score
1,B20,inactive: 0.491
2,B21,inactive: 0.826
3,B22,inactive: 1.07
4,B23,inactive: 1.02
5,B24,inactive: 0.595
6,B25,inactive: 0.922
7,B26,inactive: 0.755
8,B27,inactive: 0.949
9,B28,inactive: 1.38
10,B29,inactive: 1.26
11,B30,inactive: 0.55
12,B31,inactive: 0.69
13,B32,inactive: 0.6
14,B33,inactive: 0.544
15,B34,inactive: 1.07
16,B35,inactive: 1.32
17,B36,inactive: 2.09
18,B37,inactive: 2.59

# From the supplement of paper PMC10369915
